Experimental data: article PMC4336329 (PLoS ONE, 2015)
Out of some 310,000 compounds screened, about 14,000 (4.5%) showed an effect of 50% or more. Effects have a minus sign here. Some of the results follow.

Biological target: human ether-à-go-go-related gene (hERG) potassium channel (human, UniProt Q12809)
Test: primary screen, population patch clamp on CHO cells stably expressing hERG
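Note: peak tail current of the secondary pulse compared with the same well before compound.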

human ether-à-go-go-related gene (hERG) potassium channel, sequence (Q12809 whole entry, looked up): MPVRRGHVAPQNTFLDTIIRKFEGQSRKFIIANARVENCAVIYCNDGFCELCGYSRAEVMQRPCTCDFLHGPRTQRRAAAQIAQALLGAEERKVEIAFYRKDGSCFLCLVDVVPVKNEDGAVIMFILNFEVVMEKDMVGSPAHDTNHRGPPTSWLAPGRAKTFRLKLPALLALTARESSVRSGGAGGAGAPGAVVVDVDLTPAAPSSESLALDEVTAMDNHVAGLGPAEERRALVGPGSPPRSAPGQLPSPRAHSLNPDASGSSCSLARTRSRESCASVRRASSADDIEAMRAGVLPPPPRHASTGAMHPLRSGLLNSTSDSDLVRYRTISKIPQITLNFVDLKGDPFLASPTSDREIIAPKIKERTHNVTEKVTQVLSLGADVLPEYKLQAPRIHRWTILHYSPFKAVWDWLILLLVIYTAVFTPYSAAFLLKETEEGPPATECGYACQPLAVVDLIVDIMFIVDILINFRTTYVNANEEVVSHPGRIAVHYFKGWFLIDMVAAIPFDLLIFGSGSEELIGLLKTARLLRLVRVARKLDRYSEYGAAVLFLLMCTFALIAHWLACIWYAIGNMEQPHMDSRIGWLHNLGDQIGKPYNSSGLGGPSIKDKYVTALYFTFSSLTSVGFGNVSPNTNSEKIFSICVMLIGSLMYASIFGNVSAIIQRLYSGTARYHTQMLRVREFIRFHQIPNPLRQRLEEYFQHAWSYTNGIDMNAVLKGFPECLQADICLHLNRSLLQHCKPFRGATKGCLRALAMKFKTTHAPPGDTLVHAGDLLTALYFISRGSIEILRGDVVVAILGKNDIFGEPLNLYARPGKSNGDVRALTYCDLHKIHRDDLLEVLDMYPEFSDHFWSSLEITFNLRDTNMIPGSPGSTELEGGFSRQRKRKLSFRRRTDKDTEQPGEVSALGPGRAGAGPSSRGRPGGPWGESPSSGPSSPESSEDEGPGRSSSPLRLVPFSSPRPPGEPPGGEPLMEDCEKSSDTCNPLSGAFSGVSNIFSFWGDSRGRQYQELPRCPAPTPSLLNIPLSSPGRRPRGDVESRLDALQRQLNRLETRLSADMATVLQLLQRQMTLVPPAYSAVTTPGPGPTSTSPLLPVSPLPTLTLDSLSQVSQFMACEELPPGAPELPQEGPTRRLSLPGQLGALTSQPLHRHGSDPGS

Row | Compound | hERG current change (%, negative = inhibition) at 10uM [%]
1 | COc1cccc(CN(C)CC(=O)Nc2c(C)cccc2C(C)C)c1 | -12.2
2 | O=C1CC(Cc2ccccc2)C(=O)N1c1ccc(Cl)cn1 (centres unmarked) | 1.27
3 | Cc1ccc(-n2c(N)c(S(=O)(=O)c3ccccc3)c3nc4ccccc4nc32)cc1 | -25.6
4 | Cc1nnc(SCC(=O)N2CC(=O)Nc3ccccc32)n1C | 8.71
5 | CCSCCOC(=O)C1=C(C)NC(=O)NC1c1ccccc1 (centres unmarked) | -0.434
6 | COC(=O)C1=C(c2ccc(C(C)=O)cc2)C[C@@H]2CC[C@H]1N2C(=O)NCc1ccco1 | -18.3
7 | CC/C(C)=N/Oc1nc(C)cc(C)n1 | 19.1
8 | NC(=NCCc1ccccc1)NS(=O)(=O)c1ccccc1F | -25.8
9 | Cc1ccc(-n2ncc3c2CCCC3NC(=O)c2ocnc2C)cc1C (centres unmarked) | 1.26
10 | COc1ccc(NC(=O)CN(C)C(=O)/C=C/c2cn(-c3ccccc3)nc2-c2cccs2)cc1 | -1.91
11 | Cc1cc(C)c(NC(=O)CSc2nccn2C)c(C)c1 | 23.9
12 | O=c1cc(N2CCOCC2)c2ccccc2o1 | -13.9
13 | COc1cccc(-n2c(SCc3ccccn3)nc3c(c2=O)SCC3)c1 | 2.24
14 | COC(CNc1cc(=O)oc2ccccc12)OC | 13.3
15 | Cc1cccc(N2CCN(C(=O)COc3ccc4c(c3)CCC4)CC2)c1C | -12.1
16 | COCCCn1c(=O)/c(=C\c2ccccc2OC(F)F)s/c1=C(/C#N)C(=O)NC(C)C | 2.59
17 | CC(C)CC(OC(=O)CC1Sc2ccccc2NC1=O)C(=O)NC1CCCC1 (centres unmarked) | -22.9
18 | CCS(=O)(=O)Nc1cccc(C2=NN(S(=O)(=O)CC)C(c3cccs3)C2)c1 (centres unmarked) | -0.115
19 | CC1=C(C(=O)Nc2cccnc2)C(c2cccnc2)n2ncnc2N1 (centres unmarked) | -5.16

Row | Compound | hERG current change (%, negative = inhibition) at 10uM [%]
20 | Cc1c(C(=O)c2ccccc2)c2ccccc2n1C | -7.95
21 | COc1ccc(C2CC(c3cccs3)=NN2C(=O)CSc2nncn2C)cc1OC (centres unmarked) | 4.67
22 | O=C(CCC(=O)NNc1nc2ccccc2c2nc(-c3ccccc3)nn12)NCCCN1CCCC1=O | -1.42
23 | COc1ccc(OC(=O)c2ccncc2)cc1 | 3.25
24 | O=S(=O)(/N=C(\c1ccccc1)N1CCOCC1)c1cccs1 | 10.7
25 | CCC1Sc2ccc(S(=O)(=O)CCC(=O)Nc3cccc(Br)c3)cc2NC1=O (centres unmarked) | 12.2
26 | O=C(Nc1ccc(F)c(F)c1)c1ccco1 | 15.3
27 | Cc1cc(=O)oc(C)c1C(=O)NCCc1ccccc1 | 7.49
28 | COc1cc(CN2CCN(Cc3cccc(OC)c3OC)CC2)cc(OC)c1 | -34.2
29 | CCNC(=O)c1cc2c(=O)n3cccc(C)c3nc2n(CCc2ccccc2)c1=N | -80.3
30 | CCCc1cc(=O)[nH]c(NCCc2ccccc2)n1 | 0.266
31 | CCOC(=O)C1Nc2c(F)cc(C)cc2C2c3ccccc3CC12 (centres unmarked) | 5.67
32 | CCc1ccc(NC(=O)Cc2ccc(-n3cccc3)cc2)cc1 | 0.973
33 | NC(=O)c1ccc(Oc2ccc(Cl)cc2)c([N+](=O)[O-])c1 | 12.6
34 | CCC1Oc2ccccc2N(CC(=O)Nc2ccccc2OC)C1=O (centres unmarked) | -0.294
35 | COCCCN1C(=O)c2ccc(C(=O)OCC(=O)N(C)c3ccccc3)cc2C1=O | 2.63
36 | Clc1ccc2nc(COc3ccccc3)[nH]c2c1 | 7.7
37 | CC(NC(=O)COC(=O)c1cn(-c2ccccc2)nc1-c1cccs1)c1ccccc1 (centres unmarked) | 0.115
38 | Cc1c(NC(=O)COC(=O)c2cc(-c3cccc4ccccc34)nc3ccccc23)c(=O)n(-c2ccccc2)n1C | 1.19

Row | Compound | hERG current change (%, negative = inhibition) at 10uM [%]
39 | CCOc1ccc(C(=O)Nc2ccc(NC(=O)c3ccco3)c(Cl)c2)cc1Cl | 15.7
40 | CC(=O)N1CCN(S(=O)(=O)c2ccc3c(c2)CCC(=O)N3)CC1 | 5.04
41 | CCC1S/C(=C(\C#N)C(=O)NCc2ccco2)N(c2ccc(Br)cc2)C1=O (centres unmarked) | 2.83
42 | C=Cn1c(C(=O)O)ccc1-c1ccc(OC)cc1 | 11.8
43 | Cc1cc(S(=O)(=O)Nc2c(C)ccc3nsnc23)ccc1F | -9.06
44 | COC(=O)c1ccc(N2CCN(CC(=O)c3ccc(C)cc3)CC2)c([N+](=O)[O-])c1 | -65
45 | C=CCn1cnc2scc(-c3ccccc3)c2c1=O | -6.65
46 | O=[N+]([O-])/C(C(=C(Cl)Cl)N1CCOCC1)=C1\NCCO1 | 7.24
47 | C(=N\Nc1ccc(-n2ccnc2)nn1)/c1ccccc1 | 6.53
48 | Cn1cc([N+](=O)[O-])c(C(=O)N/N=C/c2cc3c(cc2Br)OCO3)n1 | 3.63
49 | CCc1cc2c(N=Nc3c(O)[nH]c4ccccc34)ncnc2s1 | 12.1
50 | COc1cc2c(cc1O)[C@@H]1Cc3cc(OC)c(OC)cc3C(C2)N1C | -1.85
51 | Cc1nc2ccc(C(=O)O)cc2c2c1CC(CN)O2 (centres unmarked) | 17.9
52 | COc1cc(C(=O)NC2CCN(CC(=O)Nc3cccc(C)c3C)CC2)cc(OC)c1OC | 3.93
53 | CCOc1ccccc1N1CCN(S(=O)(=O)c2cc(C)ccc2OC)CC1 | 9.89
54 | CN1/C(=C\C(=S)NC(=O)c2ccccc2Cl)C(C)(C)c2ccccc21 | 23.6
55 | COC(=O)C1=C(CN2CCCc3ccccc32)NC(=O)NC1c1ccc(F)cc1 (centres unmarked) | -15.6
56 | COC/C=C/C1=CC2=CC(=O)C(C)(OC(=O)c3cnc4ccccc4n3)C(=O)C2=CN1c1cccc(C#N)c1 (centres unmarked) | 0.992
